{"source": "paper PMC3258218", "about": "“Assembly and proteolytic processing of mycobacterial ClpP1 and ClpP2” (BMC Biochemistry, 2011)", "proteins": {"B1": {"name": "Mycobacterium tuberculosis ClpP1 with a C-terminal (His)6 tag (enzyme)", "chain": "not shown", "notes": "ClpP1 (Rv2461c), Mycobacterium tuberculosis H37Rv, 200 amino acids; also called ClpP1(His)6; MTB ClpP1; not shown: His6, C-terminal, kept"}}, "biological_target": "the molecule itself", "test": "SEC-MALS; SEC-TDA: Superdex 200 with triple detector array (static light scattering at 7° and 90°, refractometer, photometer, viscometer), 25 mM Tris-HCl pH 7.5, 150 mM KCl, 1 mM β-mercaptoethanol, 20°C; 200 μg loaded", "note": "Where “and” joins values, the source holds several entries; their conditions need not be identical. Identical values can stand only once.", "data": [{"protein": "B1", "values": [{"measurement": "stoichiometry N", "result": "1 and 3"}]}]}
